Reference: PubChem BioAssay AID504466 (National Center for Advancing Translational Sciences (NCATS), 2011)
The whole screen tested about 330,000 compounds, of which about 4,200 (1.3%) were called active. Inconclusive means that the source gave no clear call. Such entries were picked first, then a sample of the others. Calls follow the shape of the dose curve; as a rule, active = well fitted activation curve with a large enough effect; inconclusive = small, poorly fitted or top-dose-only effect; inactive = no such curve, though single readings can be large or run the other way. Potencies beside an inconclusive call are fits to weak or partial responses and may not hold up.

assay: qHTS screen for small molecules that induce genotoxicity in human embryonic kidney (HEK293T) cells expressing luciferase-tagged ELG1; details: HEK293T ELG1-luciferase reporter, luminescence, 16 h; series mostly up to 46 µM; activity change, positive = activation: at the top concentration; also: nearly all actives have a fitted effect of over 60% in size; as to activity change, positive = activation: % of control where 0% means no effect
Method in brief: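 HEK293T cells expressing luciferase-tagged ELG1 were treated with compound or DMSO for 16 hr at 37°C. Luciferase activity was then read after 30 min with ONE-Glo at room temperature; rising signal flags genetic stress.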
Potency is read from the fitted curve at half-maximal effect; tags tell the direction and shape of the fitted curve.

| SMILES | Potency | activity change, positive = activation |
| --- | --- | --- |
| CC(C)(C)c1nnc(NC(=O)c2cccs2)s1 | inconclusive: 4.11 µM [activator, partial curve, poor fit] |  |
| O=C(CCNS(=O)(=O)c1ccccc1)N1CCCCCC1 | inconclusive: 18.3 µM [activator, single point] |  |
| Nc1nc(-c2cc3c(cc2Cl)OCCO3)cs1 |  | inactive: 7.5% |
| C=CCn1c(C)cc(-c2csc(NC(=O)C3=COCCO3)n2)c1C | inconclusive: 9.2 µM [activator, partial curve] |  |
| CC(=O)Nc1ccc2ccccc2c1 | inconclusive: 20.6 µM [activator, partial curve, poor fit] |  |
| CCCOc1ccc(/C=N/Nc2ccccc2[N+](=O)[O-])c(O)c1 | inconclusive: 0.291 µM [activator, partial curve, poor fit] |  |
| CCOC(=O)N1CCN(C(=O)c2nc3ccccc3s2)CC1 | inconclusive: 16.4 µM [activator, partial curve] |  |
| COc1cc2c(cc1OC)CN(CCOc1ccc(Br)cc1)CC2 |  | inactive: -3.76% |
| Cc1n[nH]c(C)c1C(=O)CC1(O)C(=O)N(CCc2ccccc2)c2ccc(Cl)cc21 (stereo unspecified) |  | inactive: -6.96% |
| CC(=O)Oc1ccc2cc(-c3nc4ccccc4n3C)c(=O)oc2c1 | inconclusive: 9.2 µM [activator, partial curve] |  |
| C/C(=N/NC(=O)c1ccccc1)C(=O)O | inconclusive: 18.3 µM [activator, partial curve] |  |
| COc1ccc2nc(NC(=O)Nc3ccccc3)sc2c1 | inconclusive: 1.16 µM [activator, full curve] |  |
| CCC1CCCCN1C(=O)CSc1nnc(-c2cccs2)o1 (stereo unspecified) | active: 6.51 µM |  |
| Cc1cccc(Oc2coc3cc(OC(=O)c4cc5ccccc5oc4=O)ccc3c2=O)c1 | inconclusive: 23.1 µM [activator, partial curve, poor fit] |  |
| Cc1cc(C)nc(/N=C(\N)Nc2cccc(OCc3ccccc3)c2)n1 |  | inactive: -3.95% |
| CCOC(=O)C1CCN(C(=O)CCc2nnc3ccc(NCCCN4CCCC4=O)nn23)CC1 |  | inactive: 1.8% |
| Cc1ccoc1C(=O)Nc1ccc2ccccc2c1 | inconclusive: 4.11 µM [activator, single point] |  |
| N#Cc1cc(C(=O)c2ccccc2OCC(=O)Nc2ccccc2Cl)cn(C2CCCCC2)c1=O |  | inactive: -2.57% |
| CCOC(=O)Nc1ccc(C(=O)c2ccncc2)cc1 |  | inactive: 0.295% |
| CC(=O)Oc1ccc(C(=O)Cc2ccc3ccccc3n2)c(O)c1C | inconclusive: 5.8 µM [activator, full curve] |  |
| CCCn1c(C)cc(C(=O)CN2C(=O)c3cccc(N)c3C2=O)c1C | inconclusive: 2.51 µM [activator, partial curve, poor fit] |  |
